Patent publication US20250346644A1 (LATTICON SUZHOU BIOPHARMACEUTICALS, published 2025)
Substitutions are numbered along the chain they refer to. Like-named read-outs stand apart in the source and are kept apart here.

B1: NARA1-Cy01 (other)
light: [… about 150 residues …]GGGGSGGGGSGGGGSGGGGSDIVLTQSPASLAVSLGQRATISCKASQSVDYDGDSYMNWYQQKPGQPPKLLIYAASNLESGIPARFSGSGSGTDFTLNIHPVEEEDAATYYCQQSNEDPYTFGGGTKLEIK
VH: QVQLQQSGAELVRPGTSVKVSCKASGYAFTNYLIEWVKQRPGQGLEWIGVINPGCGGTNYNEKFKGKATLTADKSSSTAYMQLSSLTSDDSAVYFCARWRGDGYYAYFDVWGAGTTVTVSS
notes: hIL-2 fused to the N-terminus of the NARA1 light chain, disulfide IL:111-H:54
B2: NARA1-Cy08 (other)
light: [… about 150 residues …]GGGGSGGGGSGGGGSGGGGSDIVLTQSPASLAVSLGQRATISCKASQSVDYDGDSYMNWYQQKPGQPPKLLIYAASNLESGIPARFSGSGSGTDFTLNIHPVEEEDAATYYCQQSNECPYTFGGGTKLEIK
VH: B1 VH with C55S
notes: hIL-2 fused to the N-terminus of the NARA1 light chain, disulfide IL:37-L:94
B3: NARA1-Cy09 (other)
light: [… about 150 residues …]GGGGSGGGGSGGGGSGGGGSDIVLTQSPASLAVSLGQRATISCKASQSVDYDGDSYMNWYQQKPGQPPKLLIYAASNLESGIPARFSGSGSGTDFTLNIHPVEEEDAATYYCQQSNEDPYTFGGGTKLEIK
VH: B1 VH with N31C, C55S
notes: hIL-2 fused to the N-terminus of the NARA1 light chain, disulfide IL:68-H:31
B4: TCB2-Cy01 (other)
light: [… about 150 residues …]GGGGSGGGGSGGGGSGGGGSDIVMTQSPSSLSASVGDRVTIRCITSTDIDDDMNWYQQKPGKAPKLLISEGNTLRPGVPSRFSGSGYGTDFTFTISSLQPEDIADYYCLQSDNLPYTFGGGTKLEIK
VH: QVQLVQSGAEVKKPGASVKVSCKASGYTFTTYWIQWVRQAPGQGLEWMGAIYPGDGDTRYIQNFKGRVTMTRDTSTSTVYMELSSLRSEDTAVYYCARSLCTRGFYAMDYWGQGTLVTVSS
notes: hIL-2 fused to the N-terminus of the TCB2 light chain, disulfide IL:68-H:97
B5: TCB2-Cy02 (other)
light: [… about 150 residues …]GGGGSGGGGSGGGGSGGGGSDIVMTQSPSSLSASVGDRVTIRCITSTDIDDDMNWYQQKPGKAPKLLISEGNTLRPGVPSRFSGSGYGTDFTFTISSLQPEDIADYYCLQSDNLPYTFGGGTKLEIK
VH: B4 VH with C101A, R103C
notes: hIL-2 fused to the N-terminus of the TCB2 light chain, disulfide IL:42-H:99
B6: TCB2-Cy07 (other)
light: [… about 150 residues …]GGGGSGGGGSGGGGSGGGGSDIVMTQSPSSLSASVGDRVTIRCITSTDIDDDMNWYQQKPGKAPKLLISEGNTLRPGVPSRFSGSGYGTDFTFTISSLQPEDIADYYCLQSCNLPYTFGGGTKLEIK
VH: B4 VH with C101A
notes: hIL-2 fused to the N-terminus of the TCB2 light chain, disulfide IL:34-L:92
B7: TCB2-Cy11 (other)
light: [… about 150 residues …]GGGGSGGGGSGGGGSGGGGSDIVMTQSPSSLSASVGDRVTIRCITSTDIDDDMNWYQQKPGKAPKLLISEGNTLRPGVPSRFSGSGYGTDFTFTISSLQPEDIADYYCLQSDNCPYTFGGGTKLEIK
VH: B4 VH with C101A
notes: hIL-2 fused to the N-terminus of the TCB2 light chain, disulfide IL:37-L:94
B8: IC-Cy07 (other)
heavy: [… about 150 residues …]GGGGSGGGGSGGGGSGGGGSQVQLVQSGAEVKKPGATVKISCKVSGDTITAYYMHWVRQAPGQGLEWIGRIDPEDDSTKYAENFKGRVTITADTSTDTAYMELSSLRSEDTAVYYCTTVTCYYSRELRWFAYWGQGTLVTVSS
VL: DIVLTQSPATLSLSPGERATLSCQASQDIGNYLSWYQQKPGQAPRLLIYSATSLASGIPARFSGSRSGTDFTLTISSLEPEDFAVYYCLQHYSTPYTFGQGTKLEIK
notes: hIL-2/anti-IL-2 antibody fusion protein: hIL2-DM at the N-terminus of the heavy chain of hS4B6-H6K3(H), disulfide IL:64-H:97; also called H6K3(H)-Cy07; H6K3(H)-Cy-07
B9: K2G11 + hIL2-DM (hIL2-DM held by K2G11 on the sensor) (other)
heavy: QVQLVQSGAEVKKPGATVKISCKVSGDTITAYYMHWVRQAPGQGLEWIGRIDPDDDSTKYAENFKGRVTITADTSTDTAYMELSSLRSEDTAVYYCTTITFLYSRELRWFAYWGQGTLVTVSS[… human IgG1 constant region …]
VL: B8 VL with D28Y, G30S
chain: [… about 150 residues …]
modifications: Non-covalent complex made on the sensor: K2G11 on Protein A, then saturated with hIL2-DM.
notes: also called protein complex formed by hIL2-DM and the antibody K2G11; copies: 2 + 2 + 2

Legend:
[1] = molecular target: T1, high-affinity IL2R expressed on the surface of CTLL-2 cells; test: cell-based or functional assay
T1 sequence (P01590 whole entry, species assumed, looked up): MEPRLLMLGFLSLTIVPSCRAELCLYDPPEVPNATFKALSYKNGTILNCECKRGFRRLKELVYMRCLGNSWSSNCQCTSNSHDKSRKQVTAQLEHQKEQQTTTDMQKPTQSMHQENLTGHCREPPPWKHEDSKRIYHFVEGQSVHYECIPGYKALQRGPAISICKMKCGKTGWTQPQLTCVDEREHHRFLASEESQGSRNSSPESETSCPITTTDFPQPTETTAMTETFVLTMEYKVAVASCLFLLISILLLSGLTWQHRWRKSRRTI
T1 sequence (P16297 whole entry, species assumed, looked up): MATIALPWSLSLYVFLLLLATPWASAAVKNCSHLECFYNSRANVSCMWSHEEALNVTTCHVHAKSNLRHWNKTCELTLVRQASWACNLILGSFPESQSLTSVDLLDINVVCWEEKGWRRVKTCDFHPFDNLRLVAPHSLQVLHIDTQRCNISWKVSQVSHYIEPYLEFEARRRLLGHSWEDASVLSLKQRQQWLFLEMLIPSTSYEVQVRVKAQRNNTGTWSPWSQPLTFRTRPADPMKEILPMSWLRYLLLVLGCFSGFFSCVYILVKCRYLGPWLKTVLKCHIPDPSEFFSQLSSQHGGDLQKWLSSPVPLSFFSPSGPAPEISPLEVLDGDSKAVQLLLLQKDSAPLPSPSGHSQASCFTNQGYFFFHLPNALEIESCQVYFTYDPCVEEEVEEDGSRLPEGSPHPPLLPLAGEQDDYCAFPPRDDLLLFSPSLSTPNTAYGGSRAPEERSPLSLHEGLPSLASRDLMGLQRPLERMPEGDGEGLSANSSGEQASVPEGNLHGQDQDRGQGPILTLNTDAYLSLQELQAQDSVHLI
T1 sequence (P34902 whole entry, species assumed, looked up): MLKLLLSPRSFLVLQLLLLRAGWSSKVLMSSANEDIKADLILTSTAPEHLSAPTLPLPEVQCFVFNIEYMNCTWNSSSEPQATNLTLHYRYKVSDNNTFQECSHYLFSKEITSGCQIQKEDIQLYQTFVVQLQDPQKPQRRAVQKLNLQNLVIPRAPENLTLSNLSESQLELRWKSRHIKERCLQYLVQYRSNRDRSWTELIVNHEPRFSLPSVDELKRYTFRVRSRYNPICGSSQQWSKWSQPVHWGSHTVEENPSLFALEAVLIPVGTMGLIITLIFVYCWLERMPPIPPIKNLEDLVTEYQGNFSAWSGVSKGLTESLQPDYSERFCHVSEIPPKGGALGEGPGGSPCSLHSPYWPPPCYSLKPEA

[2] = molecular target: T1, high-affinity IL2R expressed on the …; test: cell-based or functional assay; remark: listed apart in the source
hIL2Rβ (hCD122) = molecular target: T2, hIL2Rβ (hCD122) (human, UniProt P14784 27-239, limits assumed); test: ELISA (method of section 2.1.1): sample captured on coated goat anti-human IgG, hCD122 titrated; the x axis is the CD122 concentration
T2 construct: bought recombinant protein; also called hCD122 (Acro)
T2 sequence (looked up): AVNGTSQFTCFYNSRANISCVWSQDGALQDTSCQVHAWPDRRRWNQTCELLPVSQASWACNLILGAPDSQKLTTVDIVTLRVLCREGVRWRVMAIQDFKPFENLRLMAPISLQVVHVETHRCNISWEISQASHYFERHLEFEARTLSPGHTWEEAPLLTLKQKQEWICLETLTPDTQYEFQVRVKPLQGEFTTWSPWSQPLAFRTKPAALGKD

hIL2Rα (hCD25) [3] = molecular target: T3, hIL2Rα (hCD25) (human, UniProt P01589 22-213, limits assumed); test: ELISA (method of section 2.1.1): sample captured on coated goat anti-human IgG, hCD25 titrated; the x axis is the CD25 concentration
T3 construct: bought recombinant protein; also called hCD25 (Acro); biotin-CD25 (Acro)
T3 sequence (looked up): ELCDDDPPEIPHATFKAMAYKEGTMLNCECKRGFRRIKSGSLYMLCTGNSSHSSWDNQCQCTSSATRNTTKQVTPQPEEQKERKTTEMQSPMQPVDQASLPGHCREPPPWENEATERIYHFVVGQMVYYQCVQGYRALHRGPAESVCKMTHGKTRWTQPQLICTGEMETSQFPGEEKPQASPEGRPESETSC

hIL2Rα (hCD25) [4] = molecular target: T3, hIL2Rα (hCD25); test: BLI (ForteBio): K2G11 on a Protein A sensor, saturated with hIL2-DM, then IL2Rα in 1:2 dilutions

Binder	Proliferative Activity in CTLL-2 Cells (EC50, nM) [1] [nM]	Proliferative Activity in CTLL-2 Cells (EC50, nM) [2] [nM]	also measured
B1	2.92	–	–
B2	21.3	–	–
B3	3.36	–	–
B4	–	1.34	–
B5	–	10.7	–
B6	–	9.28	–
B7	–	3.77	–
B8	–	–	binding result (hIL2Rβ (hCD122)): binds; EC50 (read off the curve) (hIL2Rα (hCD25) [3]): ~0.05 µg/mL
B9	–	–	binding result (hIL2Rα (hCD25) [4]): no binding
